Laboratory results reported in the supplement of paper PMC10681739.
The full ranking holds about 2,700 sequences; the median of “arbitrary fluorescence units” is about 4,100, and the highest 2% start at about 54,000. This is one part of the list.

Molecular target: T1, ETS1 (UniProt P14921)
T1 sequence: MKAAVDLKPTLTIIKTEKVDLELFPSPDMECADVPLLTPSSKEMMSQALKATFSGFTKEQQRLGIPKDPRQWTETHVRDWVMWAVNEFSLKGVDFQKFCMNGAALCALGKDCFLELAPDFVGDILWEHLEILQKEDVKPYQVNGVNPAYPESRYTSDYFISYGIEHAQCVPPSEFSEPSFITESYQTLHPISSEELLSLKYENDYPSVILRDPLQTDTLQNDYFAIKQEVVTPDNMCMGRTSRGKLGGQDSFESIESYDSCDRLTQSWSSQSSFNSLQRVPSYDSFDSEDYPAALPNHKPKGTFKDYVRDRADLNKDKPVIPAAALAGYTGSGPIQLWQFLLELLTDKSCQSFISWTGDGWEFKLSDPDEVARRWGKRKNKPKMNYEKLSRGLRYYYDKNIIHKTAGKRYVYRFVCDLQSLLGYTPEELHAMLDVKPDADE
Experiment: ETS1 binding intensity (PBM fluorescence) (arbitrary fluorescence units); higher = stronger binding
Conditions: ETS1 concentration 10 nM
Protocol: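 gcPBM on wild-type 36-bp genomic probes with two neighbouring ETS1 sites (4-24 bp apart). Recombinant human ETS1 (10 nM) was detected with anti-ETS1 antibody fluorescence. Values are medians over 3 replicate spots. The probes sit in constant array flanks that are not printed.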

| Sequence | ETS1 binding intensity |
| --- | --- |
| AAACTCCAGAGGAAGCCGGCTAAGGATGTGCTTGTT | 191 |
| GCCCTCCCTTGTTTCCGCTGCATCCAGACTTCCTCA | 10200 |
| TAAGAGTGGGCCGGATGTGTTTCCTGCTACCCCAGG | 13600 |
| AAGAGTTCCGGTCCGATTCTGCGAAAGAGGAAGTGA | 33700 |
| TCTTCTCTTCCGGCGCCAGGCACACATCCGGGAGCG | 14200 |
| GTGAAGGGAAGTAACTCCAGAGAAACGGGAAGCTTC | 267 |
| CAATCTTAGACTTCCTCCAACATCCCTATAAAATTC | 3070 |
| GCTTCTTGGGAAGTAGCATGAGCCGGAAGACAGCGA | 251 |
| CAGGAGAGCTTCCCGGAGTCGACCTTCCTGCTGGCT | 549 |
| ACTCGGTAGGAGGGAAGTGGCTTCCTTATCTGCAAA | 356 |
| GAACCCCGGAACCACCACCACTAACGGAACCAGCCC | 321 |
| CAGACACTTCCTTCTCTGCAATAGGAGGAAGTGATT | 7830 |
| AGCGAAAGAGGAAACTGCAGAGGAGGAAGCTGCGCC | 727 |
| TCCCTGCTTCCTGTGTCTCTGTCATTTCCTCCCATT | 26200 |
| CCAGGTGTTTCCTACAAGGTAGGGAGGAAGTATGTT | 660 |
| TGCTTTGCCTTCCTCCCGCTCAGTTTCCTGCTCACT | 1060 |
| AGAAGCGACTTCCTAGATCTCCCGGAAGTCCCTTTC | 6000 |
| CTGTAAATGAGGAAGTGACAGCTTCCTCCTAGAGCA | 2640 |
| AAGAGTAACACACAGGAAGGAAGCTCACTGAGGTGC | 676 |
| CGCCCACTTCCTATCCAGGGAGGAAGTGGCGAGGGC | 11200 |
| GTTTGATCCAGGAAATGGTGTCCTTCCTGTGGACCT | 3960 |
| AGCGCTTCCGGGTCAGCCCCTGCGATACTTCCGGGG | 28000 |
| CTCCAGAGTGGCCGGAAGCTTCCTGGGAGAGGCCTG | 6370 |
| AAATTTCCTGAGGCCTCCCCAGCCATGCTTCCTGTA | 13700 |
| GCTCCACCTTCCGGCCCATGGACACGGATGCCGAGG | 16100 |

| Sequence | ETS1 binding intensity |
| --- | --- |
| GCGCTTCGGGCCCTTCCGGCTTCCCGGGCCTCCCGG | 8330 |
| GGAGAGGAAGCACAGCTGCAGTGGTGAGGAAATACA | 228 |
| CAGTCCTTCCTGTTTAGTTTATGCCAGGAAATTAAT | 29800 |
| CTCTTGGCAACATCCGGTCACATCCCCTCCGCTATT | 60900 |
| TAGGCGACAGGAAAGGGCGGTGTTTTCCGGCTGGGA | 1800 |
| AGTCACTTCCTTCTGCAGGCACACACTTCCTCTATG | 13300 |
| TCGCGACATCCGCCCAGCGGCGGCCGGAATCTCGCG | 22800 |
| CTGCGTCCGTTCCGCCCAGGCCCTTCCGGCTCACGC | 6200 |
| AGCATCTGCTGGGGGAAACGGAAGCAGCCCAGATGG | 774 |
| CCCCTGGCTTCCGCCGGGCGCGAGCGGAAGTTACGT | 14400 |
| TCCTGGAATTTCCCGTCCTCAGACTTCCTGATCCTC | 3820 |
| GAAAACTGGGAGAGGAAGCAGGATTCTGCATCCTGG | 519 |
| GCCGAATTAGTACTTCCGCTTTCCGTGCTGTTTAAC | 24300 |
| AGGCGAGGGCTTCCTGCTGTCCTTCCTGTTTGTAAT | 9500 |
| TGATTCACATCCTGTCTCTGCCTTTTCCTGGCCCTG | 31200 |
| CCTCAGTTCCTGTCTGGTTTTTGCCCGGAAGCCACT | 7440 |
| GGAAAGGAAATGCAAACTTATTTGGCAGGAAAACAA | 952 |
| ACGCGCCGGAAGCCACGAGCCGCATTTCCTGCCGCG | 9480 |
| TGAAGACGGAAACCTGAGAACACCATTTCCTGTGCT | 4470 |
| ACCAGAAACGGAAGAGAGCGCGGGGGATGTGTTTGG | 685 |
| GCAACTTCCGCCCTGAGAAGGGTGGGGCTTCCGTCT | 63000 |
| TTAGAATTTTCCTGTGAACCAGGCGGATGCCCTGCC | 1030 |
| GAGAGTGAGGAAGTGGCTTATCTGGGGATGTGCTTC | 1290 |
| TGGGAGTTGTAGTTTCCTGTTTCCGGCTTCGCTTCG | 20000 |
| TGCAGGGCTGGCAGGAAACAGGAAAGAGGCTAGCAT | 1700 |

| Sequence | ETS1 binding intensity |
| --- | --- |
| GGGCGGGAAGCGGGGCAGCCGCCGTCCGGAAGCTGG | 585 |
| AGGCAGCGGAACTGACGCCGGCGAGCTTCCGGGGCG | 2550 |
| GAGACAGGAAGTGAGCATCTGCCCACCGGAAGCTGA | 22700 |
| AAGGCCGATAACATCCCCACTTCCTTTTCTCACCTC | 2100 |
| GGAGCCCGGAAGAGGCGCCGTGCACTTCCGGGTCGA | 8940 |
| CGGGAGTTCCGCAGCCGCCGCCTTACCGGAACCCAA | 638 |
| CAAAACAGGAACCACAAACCCCAGCTTCCTCTTGCA | 428 |
| CTCGGCAGGAAGCGCCCAGCCTGATTTCCTACAAGT | 3620 |
| TGCGGGGCGGAAGTGACGCACGAGAGGAAGTCCGTC | 13000 |
| CCACCGGAAGGCCGGATGTGTTCCTATCACGTACCC | 19300 |
| CCTGGGACCGGATGTGGTCAGGCTTCCTGAGAGTCG | 27300 |
| TCATCTCTCCTGCAGGAAGGAAGTCCTGCCTCCCAC | 315 |
| ACCGCTCTTTCCGGGTTTGCGAGCGGAAGTGGACGA | 7930 |
| CATTCGCCCGGAAATCTCTGGGAGGAAGTATCAGCA | 3150 |
| ACGTCACTACCTTCCTGACTCCGGAAGCACTTACAG | 2430 |
| CTTCTCACACCGGATGTCTGGGTTCCTGTCTTCCAG | 22600 |
| AGTTATCGGAAGTGATGTGCACAGCCGGATATTCCC | 2230 |
| GCTGCACAAAGGGAAATGCACTTCCTGCCCCAGCAG | 7060 |
| CCTCAGTTTCCTCATTGGCAGAATGGGGAAATGATT | 2070 |
| GTATGTGGTTTCCTGTGTCTTTACATCCTCACCAGT | 26300 |
| TGTGCTCATTTCCTGTCTGCACGTTTCCTTTTCCCC | 42900 |
| AGAGCAGCAGGATATTTCTGTATATCCTGTTTAGCC | 2760 |
| GAATTACATCCTGCCTGCCACGGTAAGGAAACTGCT | 33200 |
| TACCACAAAAGGAAGTTAGAACTTCCTGTACTGACA | 14500 |
| TGGCCCGGAAGCTTCTCTGCTGACCCGGAAGCAGAG | 3960 |

| Sequence | ETS1 binding intensity |
| --- | --- |
| GCGCGCTTCCTGTGAGGTCAGGTGGGAGGAAACCGC | 31000 |
| ATATTTTATTTCCGCTTGGAGGCAGGAAGGGCCTTG | 14700 |
| CGGCAGGATGGAGTGAGTGCCAGCAGAGGAAATGCC | 188 |
| CCCAGGATGCCCTGCGACTAACCAAGCCGGAAGACG | 373 |
| GCGCGTCTGCGCCGGAAGCGGAAATGGTTGGAGCCC | 10500 |
| ACAGAGGAAATCTAAGTCCGTTTGACAGGAAGCTCA | 589 |
| TGGATGAGGAAGCCACTAGGGTCTCAGGAAGTCCCC | 185 |
| AGATAAAGAAGTTTCCTCACATCCGGGGCTGCCTTT | 6930 |
| TTACCCGGAACTACTTAGCCCAGGGTTTCCTGAGTG | 480 |
| CTGATCTTTCTATTTCCTGTTTCCTGCCTAAGACTA | 20100 |
| TCCACTTCCTAGTCCGCCAATTATCATTTCCGGTGA | 16500 |
| AAATTTCAAGGAAACATTACCTATTTCCTATATAAT | 227 |
| ATGGGCCAATGGGAAGTGACACGGAAGTACGGATTG | 517 |
| CGCATGGCATCCTGGAGCCGGCACAGGAAGTGGTTA | 4530 |
| CTCTAGGTCTAACATCCCTCGGAAGTTCGTGCAGCG | 175 |
| GCCGGCGAGCGGAAGAGGCTGCAGGAAGGCCGGCCC | 3170 |
| AGCGCGCGCCCGCGGAAGGCGGAAGTGGGCGGTGCC | 2620 |
| ACCCACTTCCTGCAGCACCCACACACTTCCTGGGGC | 31700 |
| GAAGTGGAGGAAATGTTTGAACACGGATGTGGGGTC | 423 |
| CAGCGCCCGGACTTCCTCCCTTTCCGCTGCGCGAGG | 5240 |
| AGCACAGAGGAAGCTGCGGGGTCCGGAAGAAAAAAA | 525 |
| TTCCGAGAGGAAACGTTCCCTACGCTTCCCGGAGAG | 393 |
| CCGCGGGGGAGGAAATAAGAGCCGGAAGACACAAAA | 1920 |
| AGGGCACTGAAAGGAAGGGGTTCCGGGCTGGGGAGG | 604 |
| TTTCTTCCGGCCCGGCAAGGCGAGAGGAGGAAGCGG | 24300 |

| Sequence | ETS1 binding intensity |
| --- | --- |
| GAGCGACGGAAGCAGCCGCTCTTAGTTTCCGGCAAC | 3420 |
| CGCCCGGATCACACCGCCGACCTCGGGCTTCCTGAG | 173 |
| TCCACCGCCCGCTTCCTGTTTATCCGCACTGCGCTT | 22500 |
| GGGTATGTGGTTTCCTCACACTTCCTGAGTTTATGT | 2900 |
| TAACAGGAAGCATGACTAGGAGCCCTCAGGAAACTT | 1510 |
| CTCGCTGGGCCGGAAGGGACCGGGAAATTCCAAGCC | 3470 |
| TAGTTTCCTGCCTTAAAGAGCCTTTACAGGAAATTG | 25200 |
| CCAGGGAGCACTTCCTATTGCAGGAAGAACAATTCC | 7660 |
| AAACCAGGAAGACCTACTAGGAGGACGGAAGTCGAA | 538 |
| GGGCGGGACTTCCGGCAAGGCGCGGAAGCGGCGGTA | 46400 |
| GTCAGCAGGATGCAGGTGCTACACAGGAAGGTGTCT | 982 |
| GGCCGCCCCTGCGGATGTGAGGAAATCAGTAGCGTG | 1410 |
| CACGCCTATAATCCAGCTATTCAGGAAGCGGAAGCA | 423 |
| CATTTCACAGGAAATAATCTAAGGGATGTGTGTGTG | 2450 |
| TGAGAAACCACATCCTGCTCAGGAAGCCAAGCACCC | 16000 |
| CGAGCCGGAATCGAACCAGCGACCTAAGGATGTCCG | 331 |
| GCCCCGGCCCCACGGATACTTCCGCGCCTGTCAGAC | 1010 |
| CAAGCCACAGGAAACCTCCAGCAGGAAGTCGGGCTG | 1970 |
| TAGAATGTATCCTGTCCTGAGTCATTTCCCTCTTTG | 7380 |
| ACTACCTTTCGGGGATGTGGTTTCCGCCCTTCTTCT | 2000 |
| GAGGTGCCGCAGGATGTAACGGGATGTGCACTATGC | 1170 |
| CACCTCCTTCCTGGACTCCCCTCTCTTCCTGCCCAG | 4840 |
| CACAGGATGGGGGCATGGCATTTGGGCAGGAAATGC | 835 |
| GTCCCCTTCCTAATGACTCTGAGGCAGGATATGACA | 642 |
| GCCAATTTTCCACTTCCGCTTCCGGCGCTGCGGCAG | 35200 |
